This is one part of the list. Many values rest on one well or one pass, so single values are uncertain.
Each compound was assayed on A101D (assay: cell count relative to DMSO control; melanoma cells; higher = more viable cells). Conditions: library dose: low library concentration; 72 h.
`COc1cc(N2CCC(N3CCN(C)CC3)CC2)ccc1Nc1ncc(Cl)c(Nc2ccccc2S(=O)(=O)C(C)C)n1` + O=C(Oc1ccc([N+](=O)[O-])cc1)N1CCC(C(O)(c2ccc3c(c2)OCO3)c2ccc3c(c2)OCO3)CC1 [JZL184] (first compound 0.08 µM, partner dose 1 µM) gave a cell count of 99%.
`Cn1c(Nc2ccc(C(F)(F)F)cc2)nc2cc(Oc3ccnc(-c4ncc(C(F)(F)F)[nH]4)c3)ccc21` + C/C(O)=C(\C#N)C(=O)Nc1cc(Br)ccc1Br [LFM-A13] (first compound 0.08 µM, partner dose 2 µM) showed a cell count of 62.9%.
`CO[C@H]1C[C@@H]2CC[C@@H](C)[C@@](O)(O2)C(=O)C(=O)N2CCCC[C@H]2C(=O)O[C@H]([C@H](C)C[C@@H]2CC[C@@H](OCCO)[C@H](OC)C2)CC(=O)[C@H](C)/C=C(\C)[C@@H](O)[C@@H](OC)C(=O)[C@H](C)C[C@H](C)/C=C/C=C/C=C/1C` [everolimus] + C[As](C)SC[C@H](NC(=O)CC[C@H](N)C(=O)O)C(=O)NCC(=O)O [Darinaparsin] (first compound 0.02 µM, partner dose 0.4 µM) was tested, and the cell count was 77%.
For `C=CCn1c(=O)c2cnc(Nc3ccc(N4CCN(C)CC4)cc3)nc2n1-c1cccc(C(C)(C)O)n1` + O=C(Oc1ccc([N+](=O)[O-])cc1)N1CCC(C(O)(c2ccc3c(c2)OCO3)c2ccc3c(c2)OCO3)CC1 [JZL184] (first compound 0.02 µM, partner dose 1 µM), the cell count was 72.8%.

The compounds below were run on A2058 in the same assay as above. Conditions: library dose: low library concentration; 72 h.
`COc1ccc(COc2ccc(Cc3cnc(N)nc3N)cc2OC)cc1` + Cc1cc(SCc2sc(-c3ccc(C(F)(F)F)c(F)c3)nc2C)ccc1OCC(=O)O [GW0742] (first compound 1 µM, partner dose 2 µM) showed a cell count of 83.9%.
Work on `Clc1ccc(Nc2nnc(Cc3ccncc3)c3ccccc23)cc1` [vatalanib] + C[As](C)SC[C@H](NC(=O)CC[C@H](N)C(=O)O)C(=O)NCC(=O)O [Darinaparsin] (first compound 2 µM, partner dose 0.4 µM) yielded a cell count of 91.5%.
In the case of `COc1ccc(COc2ccc(Cc3cnc(N)nc3N)cc2OC)cc1` + C/C(O)=C(\C#N)C(=O)Nc1cc(Br)ccc1Br [LFM-A13] (first compound 1 µM, partner dose 2 µM), the cell count is reported as 98.8%.
With `COCC[n+]1c2c(n(Cc3cnccn3)c1C)C(=O)c1ccccc1C2=O` + Cc1cc(SCc2sc(-c3ccc(C(F)(F)F)c(F)c3)nc2C)ccc1OCC(=O)O [GW0742] (first compound 0.0004 µM, partner dose 2 µM) the cell count was 58.2%.
`O=C(CCCCCCC(=O)Nc1ccccc1)NO` [vorinostat] + Cc1cc(SCc2sc(-c3ccc(C(F)(F)F)c(F)c3)nc2C)ccc1OCC(=O)O [GW0742] (first compound 0.08 µM, partner dose 2 µM) gave a cell count of 122%.
Compound `Cc1cc(Nc2cc(N3CCN(C)CC3)nc(Sc3ccc(NC(=O)C4CC4)cc3)n2)n[nH]1` [Tozasertib] + C[C@]12O[C@H](C[C@]1(O)CO)n1c3ccccc3c3c4c(c5c6ccccc6n2c5c31)CNC4=O [Lestaurtinib] (first compound 0.006 µM, partner dose 0.004 µM) has a cell count of 94.5%.
`O=C(O)c1ccc2c(c1)nc(Nc1cccc(Cl)c1)c1ccncc12` + C[As](C)SC[C@H](NC(=O)CC[C@H](N)C(=O)O)C(=O)NCC(=O)O [Darinaparsin] (first compound 0.4 µM, partner dose 0.4 µM) gave a cell count of 88.1%.
Work on `Cn1c(Nc2ccc(C(F)(F)F)cc2)nc2cc(Oc3ccnc(-c4ncc(C(F)(F)F)[nH]4)c3)ccc21` + Cc1cc(SCc2sc(-c3ccc(C(F)(F)F)c(F)c3)nc2C)ccc1OCC(=O)O [GW0742] (first compound 0.08 µM, partner dose 2 µM) yielded a cell count of 67.1%.
`C#Cc1cccc(Nc2ncnc3cc(OCCOC)c(OCCOC)cc23)c1` [erlotinib] + O=C(Oc1ccc([N+](=O)[O-])cc1)N1CCC(C(O)(c2ccc3c(c2)OCO3)c2ccc3c(c2)OCO3)CC1 [JZL184] (first compound 0.8 µM, partner dose 1 µM) was tested, and the cell count was 83.5%.
For `Cc1cc(Nc2cc(N3CCN(C)CC3)nc(Sc3ccc(NC(=O)C4CC4)cc3)n2)n[nH]1` [Tozasertib] + Cn1cc(C2=C(c3cn(C4CCN(Cc5ccccn5)CC4)c4ccccc34)C(=O)NC2=O)c2ccccc21 [Enzastaurin] (first compound 0.006 µM, partner dose 0.8 µM), the cell count was 98.4%.
In the case of `O=C(CCCCCCC(=O)Nc1ccccc1)NO` [vorinostat] + C/C(O)=C(\C#N)C(=O)Nc1cc(Br)ccc1Br [LFM-A13] (first compound 0.08 µM, partner dose 2 µM), the cell count is reported as 111%.
`Oc1cc(-c2nc(-c3ccccc3)[nH]c2-c2ccncc2)ccc1Cl` + C/C(O)=C(\C#N)C(=O)Nc1cc(Br)ccc1Br [LFM-A13] (first compound 0.2 µM, partner dose 2 µM) showed a cell count of 115%.
`c1cc(-c2cnn3cc(-c4ccc(OCCN5CCCCC5)cc4)cnc23)ccn1` [Dorsomorphin] + O=C(Oc1ccc([N+](=O)[O-])cc1)N1CCC(C(O)(c2ccc3c(c2)OCO3)c2ccc3c(c2)OCO3)CC1 [JZL184] (first compound 0.4 µM, partner dose 1 µM) was tested, and the cell count was 125%.
Compound `CN1CCN(c2ccc3nc(-c4c(N)c5c(F)cccc5[nH]c4=O)[nH]c3c2)CC1` [Dovitinib] + C[As](C)SC[C@H](NC(=O)CC[C@H](N)C(=O)O)C(=O)NCC(=O)O [Darinaparsin] (first compound 0.1 µM, partner dose 0.4 µM) has a cell count of 93.1%.
With `Cc1cc(Nc2cc(N3CCN(C)CC3)nc(Sc3ccc(NC(=O)C4CC4)cc3)n2)n[nH]1` [Tozasertib] + C[As](C)SC[C@H](NC(=O)CC[C@H](N)C(=O)O)C(=O)NCC(=O)O [Darinaparsin] (first compound 0.006 µM, partner dose 0.4 µM) the cell count was 88.4%.
`C#Cc1cccc(Nc2ncnc3cc(OCCOC)c(OCCOC)cc23)c1` [erlotinib] + C/C(O)=C(\C#N)C(=O)Nc1cc(Br)ccc1Br [LFM-A13] (first compound 0.8 µM, partner dose 2 µM) gave a cell count of 112%.
`Oc1nc(-c2ccc(C(F)(F)F)cc2)nc2c1CSCC2` + O=C(Oc1ccc([N+](=O)[O-])cc1)N1CCC(C(O)(c2ccc3c(c2)OCO3)c2ccc3c(c2)OCO3)CC1 [JZL184] (first compound 2 µM, partner dose 1 µM) showed a cell count of 86.9%.
For `C[C@@H]1CCN(C(=O)CC#N)C[C@@H]1N(C)c1ncnc2[nH]ccc12` + Cc1cc(SCc2sc(-c3ccc(C(F)(F)F)c(F)c3)nc2C)ccc1OCC(=O)O [GW0742] (first compound 1 µM, partner dose 2 µM), the cell count was 104%.
In the case of `COc1cc2ncnc(Nc3ccc(Oc4ccccc4)cc3)c2cc1OC` + O=C(Oc1ccc([N+](=O)[O-])cc1)N1CCC(C(O)(c2ccc3c(c2)OCO3)c2ccc3c(c2)OCO3)CC1 [JZL184] (first compound 2 µM, partner dose 1 µM), the cell count is reported as 90.8%.
`C[C@@H]1CCN(C(=O)CC#N)C[C@@H]1N(C)c1ncnc2[nH]ccc12` + C/C(O)=C(\C#N)C(=O)Nc1cc(Br)ccc1Br [LFM-A13] (first compound 1 µM, partner dose 2 µM) was tested, and the cell count was 98.2%.
In the case of `COCC[n+]1c2c(n(Cc3cnccn3)c1C)C(=O)c1ccccc1C2=O` + C/C(O)=C(\C#N)C(=O)Nc1cc(Br)ccc1Br [LFM-A13] (first compound 0.0004 µM, partner dose 2 µM), the cell count is reported as 81%.
With `Cc1cc(Nc2cc(N3CCN(C)CC3)nc(Sc3ccc(NC(=O)C4CC4)cc3)n2)n[nH]1` [Tozasertib] + N.N.[Cl][Pt][Cl] [cisplatin] (first compound 0.006 µM, partner dose 1.6 µM) the cell count was 102%.
With `COc1cc2ncnc(Nc3ccc(Oc4ccccc4)cc3)c2cc1OC` + C/C(O)=C(\C#N)C(=O)Nc1cc(Br)ccc1Br [LFM-A13] (first compound 2 µM, partner dose 2 µM) the cell count was 106%.
With `O=C(O)C(=O)Nc1sc2c(c1C(=O)O)CCNC2` + O=C(Oc1ccc([N+](=O)[O-])cc1)N1CCC(C(O)(c2ccc3c(c2)OCO3)c2ccc3c(c2)OCO3)CC1 [JZL184] (first compound 1.66667 µM, partner dose 1 µM) the cell count was 103%.
`CC(C)C[C@H](NC(=O)[C@H](Cc1ccccc1)NC(=O)c1cnccn1)B(O)O` [Bortezomib] + N.N.[Cl][Pt][Cl] [cisplatin] (first compound 0.001 µM, partner dose 1.6 µM) gave a cell count of 92.9%.
`CC(C)C[C@H](NC(=O)[C@H](Cc1ccccc1)NC(=O)c1cnccn1)B(O)O` [Bortezomib] + C[As](C)SC[C@H](NC(=O)CC[C@H](N)C(=O)O)C(=O)NCC(=O)O [Darinaparsin] (first compound 0.001 µM, partner dose 0.4 µM) showed a cell count of 89.5%.
In the case of `Cc1nc(Nc2ncc(C(=O)Nc3c(C)cccc3Cl)s2)cc(N2CCN(CCO)CC2)n1` [dasatanib] + C/C(O)=C(\C#N)C(=O)Nc1cc(Br)ccc1Br [LFM-A13] (first compound 0.004 µM, partner dose 2 µM), the cell count is reported as 95.4%.
`Cn1c(Nc2ccc(C(F)(F)F)cc2)nc2cc(Oc3ccnc(-c4ncc(C(F)(F)F)[nH]4)c3)ccc21` + O=C(Oc1ccc([N+](=O)[O-])cc1)N1CCC(C(O)(c2ccc3c(c2)OCO3)c2ccc3c(c2)OCO3)CC1 [JZL184] (first compound 0.08 µM, partner dose 1 µM) showed a cell count of 84.1%.

— the supplement of paper PMC4604168 (melanoma cell lines)
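Further: cell number obtained by counting DAPI-stained nuclei in high-throughput microscope images with image analysis software, screen run in 1,536-well plates.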
